Measured values published in article PMC5656619.
No constants are given. Whether binding was seen depends on the method and setting. In cells and extracts the contact can be indirect. Some binding calls cover weakened binding; strength is not graded here.

The chains behind the UniProt entries cited, without tags or fusion partners. Where a name states a change or a piece, a line headed by the entry shows the natural chain unless it says otherwise.
UniProt Q9H0J9: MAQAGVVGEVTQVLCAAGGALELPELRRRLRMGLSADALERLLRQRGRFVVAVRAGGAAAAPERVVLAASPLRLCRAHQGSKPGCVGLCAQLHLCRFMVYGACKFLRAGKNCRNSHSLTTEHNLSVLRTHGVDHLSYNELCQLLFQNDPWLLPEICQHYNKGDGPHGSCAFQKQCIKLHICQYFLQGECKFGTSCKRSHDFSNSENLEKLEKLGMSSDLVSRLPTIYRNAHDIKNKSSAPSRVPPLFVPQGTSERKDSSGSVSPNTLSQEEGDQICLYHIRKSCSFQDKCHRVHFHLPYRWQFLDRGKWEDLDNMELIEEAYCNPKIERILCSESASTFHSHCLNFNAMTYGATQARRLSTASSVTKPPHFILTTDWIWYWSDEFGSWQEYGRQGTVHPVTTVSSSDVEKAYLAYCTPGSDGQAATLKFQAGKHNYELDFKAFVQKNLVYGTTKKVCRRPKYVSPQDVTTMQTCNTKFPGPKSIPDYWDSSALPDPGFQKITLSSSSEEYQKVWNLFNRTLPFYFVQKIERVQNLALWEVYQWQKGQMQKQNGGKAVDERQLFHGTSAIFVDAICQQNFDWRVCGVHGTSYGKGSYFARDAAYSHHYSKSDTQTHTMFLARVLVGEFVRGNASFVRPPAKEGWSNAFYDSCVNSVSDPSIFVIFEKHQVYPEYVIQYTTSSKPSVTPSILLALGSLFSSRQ

Tests used:
[1] = biological target: Myc-tagged full-length PARP12 wild-type (human) (UniProt Q9H0J9); test: co-IP; Myc-tagged PARP12 full-length immunoprecipitated with anti-Myc antibody on beads, then incubated 2 h at 4 °C with 700 μg HeLa lysate overexpressing the FLAG-tagged construct; lysis buffer A (50 mM Tris-HCl pH 7.4, 150 mM NaCl, 1% Triton-X100); Western blot with anti-FLAG and anti-PARP12; only the target purified
[2] = biological target: Myc-tagged full-length PARP12 wild-type (human) (UniProt Q9H0J9); test: co-IP; as a2 but lysis and washes in buffer B (25 mM Tris-HCl pH 7.4, 150 mM NaCl, 1% Triton-X100, 5 mM EDTA, 5 mM MgCl2), used for the FLAG-tagged MUT4 protein; only the target purified
[3] = biological target: Myc-tagged PARP12 I660A (human) (UniProt Q9H0J9); test: co-IP; anti-Myc immunoprecipitation of total lysates (RIPA buffer) of HeLa cells transfected with Myc-tagged PARP12 wild-type or mutants; Western blot with anti-PARP12 antibody
[4] = biological target: Myc-tagged full-length PARP12 wild-type (human) (UniProt Q9H0J9); test: as above
[5] = biological target: Myc-tagged PARP12 H564A (human) (UniProt Q9H0J9); test: as above

Substance	binding [1]	also measured
FLAG-PARP12 MUT1 (amino acids 1-296) (from UniProt Q9H0J9 1-296) (domain or fragment)	no binding	–
FLAG-PARP12 MUT2 (amino acids 1-361) (from UniProt Q9H0J9 1-361) (domain or fragment)	binds	–
FLAG-PARP12 MUT3 (amino acids 1-458) (from UniProt Q9H0J9 1-458) (domain or fragment)	binds	–
FLAG-PARP12 MUT4 (amino acids 298-701) (from UniProt Q9H0J9 298-701) (domain or fragment)	–	binding [2]: binds
FLAG-PARP12 MUT5 (amino acids 364-701) (from UniProt Q9H0J9 364-701) (domain or fragment)	no binding	–
endogenous PARP12 (from UniProt Q9H0J9 1-701)	–	binding [3]: binds; binding [4]: binds; binding [5]: binds
